PubChem BioAssay AID1346428 (National Center for Advancing Translational Sciences (NCATS), 2018)
The whole screen tested about 48,000 compounds, of which about 1,200 (2.5%) were called active. Inconclusive results (about 2%) are left out.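 How the source made its calls: active means activation of at least 60% and not above a set upper limit (about 1 call in 100 departs from these limits); inconclusive means activation of 40% to 60%, or above that upper limit; inactive means activation under 40%.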 This is one part of the list. *1 amine or outer side, *2 acyl side, *3 side chain or, on linkers, in order; H or OH if unused. Where a SMILES comes first, the peptide text is derived from it. Bridges are numbered along the chain shown (N, C = ends). [ ]: non-standard residue; d: D form. The star is where a group is joined. ξ: configuration not given here. ΔAla(3-NHCONH2) = NC(=O)NC=C(N)C(=O)O; X1 = NC1=NCCC(C(N[*:1])C(=O)[*:2])N1; ξβ3hOrn = NCCCC(N)CC(=O)*; Dap = NC[CH](N)C(=O)O

biological target: Probable G-protein coupled receptor 32 (Homo sapiens) (UniProt O75388); test: qHTS for Agonists of Human Resolvin D1 Receptor DRV1; conditions: CHO-K1 GPR32 beta-arrestin PathHunter luminescence, 90 min; at 76.9 µM; stronger effect = higher value; zero percent set by DMSO-only wells; further: 0% is about no effect
UniProt O75388, sequence (O75388 whole entry, looked up, the tested form may be a part): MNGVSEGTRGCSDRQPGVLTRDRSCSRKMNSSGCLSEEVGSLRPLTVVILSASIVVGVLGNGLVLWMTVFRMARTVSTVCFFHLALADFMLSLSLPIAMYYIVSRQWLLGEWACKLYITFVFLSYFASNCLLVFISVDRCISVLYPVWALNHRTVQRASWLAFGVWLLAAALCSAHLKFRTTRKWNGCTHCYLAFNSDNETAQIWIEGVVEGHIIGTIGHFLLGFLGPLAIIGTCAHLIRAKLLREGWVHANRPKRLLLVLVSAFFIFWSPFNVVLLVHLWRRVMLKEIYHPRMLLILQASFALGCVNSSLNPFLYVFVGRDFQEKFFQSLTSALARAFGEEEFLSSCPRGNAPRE
In short: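 GPR32 activation in stably transfected CHO-K1 cells, detected as beta-arrestin recruitment by enzyme-fragment complementation. Compound exposure: 90 min, 37 °C.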

activation, inactive:
CC(C)c1ccc(C(=O)Nc2cc(-c3ccccc3F)nn2-c2ccccc2)cc1 -1.08%
CCN(C(=O)c1coc(=O)c2ccccc12)c1ccccc1C -0.831%
Cc1ccc(-c2nnn3c2nc(NCCc2ccc(Cl)cc2)c2ccccc23)cc1 37.8%
CCCOc1ccc(CNC(=O)Cn2ncn3c(cc4sc(CC)cc43)c2=O)cc1 -4.98%
CCC1CCCCN1CC(=O)Nc1cc(C)c2c(=O)oc3ccccc3c2n1 (stereo not drawn) -6.14%
O=C(CSc1nc2c([nH]c3ccccc32)c(=O)n1-c1ccc(Cl)cc1)N1CCOCC1 2.2%
Cc1cc(C)cc(NC(=O)C2CCCN(C(=O)c3cnn(-c4ccccc4)c3-n3cccc3)C2)c1 (stereo not drawn) 10.5%
Cc1cccc(NC(=O)CSc2c(C)cnc3c2c(=O)n(C)c(=O)n3C)c1C 16.1%
O=S(=O)(NCC(c1ccco1)N1CCOCC1)c1cc(F)ccc1F (stereo not drawn) -3.12%
Cc1ccc(NC(=O)N2CCC(c3ccccc3)C2)cc1C (stereo not drawn) -6.34%
Cc1ccc(-c2nonc2NC(=O)c2ccc(F)cc2)cc1C 16.7%
COc1cc(C(=O)NCC(c2ccco2)S(=O)(=O)c2ccccc2)cc(OC)c1OC (stereo not drawn) -5.64%
O=C(CCc1ccccc1)N(Cc1cccnc1)c1nc2c(F)cccc2s1 -28.1%
CCc1nn(C(CC)C(=O)NCc2ccc(F)cc2)c(=O)c2cc3occc3n12 (stereo not drawn) -5.72%
O=C(c1cc2c(s1)-c1ccccc1OC2)N1CCN(c2ccccc2)CC1 -29.9%
CC1=C(C(=O)Nc2ccccc2)C(CC(C)C)n2nc(SCc3ccccc3C)nc2N1 (stereo not drawn) 2.4%
CCCOc1ccc(C(=O)N(Cc2ccc(N(C)C)cc2)CC2CCCO2)cc1 (stereo not drawn) -26%
NCCCC(N)CC(=O)NCC1NC(=O)C(CO)NC(=O)C(N)CNC(=O)C(C2CCN=C(N)N2)NC(=O)C(=CNC(N)=O)NC1=O (stereo not drawn) (H-[Dap]S[Dap](ξβ3hOrn)[ΔAla(3-NHCONH2)][X1]; lactam 1-C; configuration not given here) 7.39%
Cc1ccc(C(=O)Nc2ccc(OCc3cc(=O)n4c(C)csc4n3)cc2)cc1 3.91%
CCCN(CCC)CCCNC(=O)Cn1ncc2c3ccccc3n(Cc3ccccc3)c2c1=O -5.69%
Cc1ccc(NC(=O)Cc2csc(C)n2)c(C)c1 -7.47%
COc1cc2c(cc1O)CC[C@@H]1[C@@H]2CC[C@]2(C)[C@@H](O)CC[C@@H]12 -25.2%
Cc1nc(-c2ccc(Cl)cc2)sc1CCNC(=O)c1cccs1 36.6%
Cc1cccc(NC(=O)CSc2nncn2C)c1 -3.65%
CCCOc1ccc(-c2nc(SC)[nH]c(=O)c2C#N)cc1OC -0.127%
CCN(CC)CCN(C(=O)c1ccco1)c1nc2ccc(Br)cc2s1 44.4%
CC(=O)Nc1nonc1-c1nnc(SCC(=O)Nc2cc(C)cc(C)c2)n1-c1ccccc1 -6.55%
Cc1ccc(S(=O)(=O)c2c(Nc3cc(F)ccc3F)sc(C(=O)c3ccc(F)cc3)c2N)cc1 -11.3%
O=C(c1ccc2c(c1)N(Cc1ccccc1)C(=O)c1ccccc1S2(=O)=O)N1CCCCCC1 -23.1%
Cc1ccccc1Cn1c2ccccc2c2cnn(CC(=O)NCCc3ccccc3)c(=O)c21 -6.59%
COc1cc(-c2noc(CCC(=O)Nc3cc(C)ccc3C)n2)cc(OC)c1OC 6.98%
COc1ccc(NC(=O)C(Cc2ccccc2)n2cccc2)cc1OC (stereo not drawn) -8.38%
Cc1ccc(-n2ncc(C(=O)NCCc3c[nH]c4ccccc34)c2C2CCN(C(=O)OC(C)(C)C)CC2)cc1C 3.21%
COc1ccc(NC(=O)CCS(=O)(=O)c2ccc3nc(C)sc3c2)cc1Cl -2.04%
CCn1c(=O)c2sccc2n2c(CCC(=O)N3CCN(c4ccc(C(C)=O)cc4)CC3)nnc12 1.24%
Cc1ccccc1C(=O)N(Cc1nc(-c2ccc(Cl)cc2)no1)C(C)C -11.7%
CNC(=O)c1c(NC(=O)/C=C/c2ccccc2Cl)sc2c1CCC2 0.48%
Cc1ccc(OC(=O)CSc2nnc(-c3cccs3)o2)cc1 4.83%
CCC(=O)Nc1ccc(CC)cc1-c1nc2ccccc2n(Cc2ccccc2)c1=O -24.6%
COc1ccc(C(=O)c2oc3ccccc3c2NC(=O)COc2cccc(C)c2C)cc1 -6.36%
O=C(Cn1c(-c2cccs2)cc2cc(Cl)ccc21)N1CCN(c2ccccc2F)CC1 0.12%
CC(NC(=O)CN(c1ccc(Cl)cc1Cl)S(=O)(=O)c1ccccc1)c1ccccc1 (stereo not drawn) -30.5%
CC1CCC(NC(=O)c2cc3c(Cl)nc4ccccc4c3s2)CC1 (stereo not drawn) 14.4%
O=C(Cn1ccc2cc(S(=O)(=O)N3CCCCC3)ccc21)NCc1cccc(Cl)c1 19.2%
Cc1cc(S(=O)(=O)NCC(c2ccco2)S(=O)(=O)c2ccccc2)ccc1F (stereo not drawn) -14.1%
Cc1cc(C)c(NC(=O)Cn2nnc(-c3ccccc3)n2)c(C)c1 -10.5%
CCOC(=O)C(C)NC(=O)C1CCN(c2ncnc3c2nc2n3CCCCC2)CC1 (stereo not drawn) 5.2%
CCOc1ccccc1NC(=O)Cn1c(=O)n(Cc2ccccc2)c(=O)c2cccnc21 -34.7%
CC(=O)Nc1ccccc1-c1nc2ccccc2n(Cc2cccc(Br)c2)c1=O -10.4%
COc1ccc(F)cc1S(=O)(=O)Nc1cccc(-c2ccc(N3CCCCCC3)nn2)c1 -7.48%
Cc1cccn2c(=O)cc(COc3cccc(NC(=O)COc4ccc(F)cc4)c3)nc12 -10.1%
O=C(CN1CCCN(Cc2ccccc2Cl)S1(=O)=O)NCc1ccccc1 -16.1%
CC(C)N(Cc1ccccc1)C(=O)Cn1ncc2c([nH]c3ccccc32)c1=O 21.1%
CNC(=O)[C@H]1O[C@@H](n2cnc3c(NCc4ccc(N)cc4)ncnc32)[C@H](O)[C@@H]1O 2.21%
CCc1nnc(NC(=O)C(=O)c2cc(C)n(-c3ccccc3)c2C)s1 -1.83%
Cc1ccc(CN(C(=O)COc2c(C)cccc2C)C2CCS(=O)(=O)C2)o1 (stereo not drawn) -29.4%
COC(=O)c1nc2n(n1)C(c1cc(OC)ccc1OC)C(C(=O)Nc1ccc(C)cc1C)=C(C)N2 (stereo not drawn) 4.26%
COc1ccc(/C=C\C(=O)NC2CC(=O)N(c3ccccc3)C2)cc1OC (stereo not drawn) -6.19%
COc1cc(NC(=O)c2nc(-c3ccncc3)no2)cc(OC)c1OC -7.61%
Cc1ccc(NC(=O)C(Cc2c[nH]c3ccccc23)NC(=O)OCC(C)C)cc1 (stereo not drawn) 7.29%
Cc1ccc(Cl)cc1N1CCN(CCNC(=O)Nc2ccccc2Cl)CC1 -5%
CC(C)(C)C(=O)NCCc1csc2nc(-c3ccc(F)cc3)nn12 0.566%
O=C(CCS(=O)(=O)c1cccc2nsnc12)Nc1ccc(F)cc1 3.86%
Cc1ccc(Cl)cc1NC(=O)C(=O)NCC(c1cccnc1)N1CCc2ccccc21 (stereo not drawn) -20.5%
COc1ccc2oc(-c3ccc(C)c(NC(=O)COc4cc(C)cc(C)c4)c3)nc2c1 -10.8%
CCc1ccc(-n2c(=O)c3c4c(sc3n(CC(=O)c3ccc(Cl)cc3)c2=O)CCC4)cc1 -0.438%
CSc1cccc(NC(=O)C2CCN(C(=O)c3cnn(-c4ccccc4)c3-n3cccc3)CC2)c1 17.2%
Cc1ccc2oc3c(c(=O)c2c1)C1(C(=O)N(C)c2ccccc21)N(CCCO)C3=O (stereo not drawn) -6.47%
Nc1ccc(O)c(C(=O)O)c1 -27.8%
O=C(c1ccccc1)N1c2ncnn2C2(CCCCC2)[C@@H]2CCCC[C@@H]21 -4.44%
Cc1ccc(-n2nnc(C(=O)Nc3cc(F)ccc3F)c2C)cc1F -1.31%
Cc1nn(-c2ccc(N3CCOCC3)nn2)c(C)c1CCC(=O)NCc1ccc(F)cc1 0%
Cc1ccccc1C(=O)Nc1cc(-c2ccc(Cl)cc2)nn1-c1ccccc1 30.9%
Cc1ccc2c(c1)C(c1ccc(F)cc1)N(C(=O)c1ccc(OC(C)C)cc1)CC(=O)N2 (stereo not drawn) -12.9%
COc1cc2[nH]c(=O)n(CCCC(=O)N3CCN(c4cccc(C(F)(F)F)c4)CC3)c(=O)c2cc1OC -0.437%
Cc1ccn2c(=O)cc(COc3ccc(NC(=O)c4ccccc4F)cc3)nc2c1 0.256%
Cn1ncc2nc(SCC(=O)Nc3ccc(Br)cc3F)n(Cc3ccccc3)c(=O)c21 -12.3%
CCOc1ccc(NC(=O)CSc2nc3c(oc4ccccc43)c(=O)n2CCOC)cc1 19.7%
COc1ccc(C(=O)CSc2c(C(C)C)cnc3c2c(=O)n(C)c(=O)n3C)cc1 -19.9%
Cc1ccc(NC(=O)C2CCN(c3cc(C)nc4c(-c5ccc(Cl)cc5)c(C)nn34)CC2)c(C)c1 -17.3%
COc1ccccc1N1CCN(C(=O)CN2C(=O)COc3ccc(S(=O)(=O)N4CCC(C)CC4)cc32)CC1 -17%
Cc1ccc(C)c(CSc2nc3ccncc3n2CC(=O)Nc2ccc(N(C)C)cc2)c1 -20.9%
Cc1cccc2nc(-c3cccc(NS(=O)(=O)c4ccccc4)c3)cn12 12.4%
